This is one part of the list.
Legend:
[1] = system: HSkMC (human skeletal muscle cells); assay: cytotoxicity call (relative viability < 0.9); conditions: 10 µM
[2] = system: HepG2; assay: cytotoxicity call (relative viability < 0.9); conditions: 10 µM
[3] = system: S. aureus RN4220; assay: growth inhibition call (relative growth <= 0.2); conditions: 50 µM

C[C@@H]1CCCCO[C@@H](CN(C)C(=O)c2ccccc2)[C@@H](C)CN([C@H](C)CO)C(=O)c2cc(NC(=O)C3CCCCC3)ccc2O1
inactive: cytotoxicity call [1] | cytotoxicity call [2] | growth inhibition call [3]

CCCN(C)C[C@H]1OCCCC[C@@H](C)Oc2ccc(NC(=O)C3CCCCC3)cc2C(=O)N([C@H](C)CO)C[C@H]1C
inactive: cytotoxicity call [1] | cytotoxicity call [2] | growth inhibition call [3]

Cc1noc(C)c1S(=O)(=O)Nc1ccc2c(c1)C(=O)N([C@H](C)CO)C[C@H](C)[C@@H](CN(C)S(=O)(=O)c1c(C)noc1C)O2
inactive: cytotoxicity call [1] | cytotoxicity call [2] | growth inhibition call [3]

Cc1ccc(S(=O)(=O)N2C[C@H](O)COC[C@@H]3O[C@H](CC(=O)N[C@@H]4CCN(Cc5ccccc5)C4)CC[C@H]32)cc1
inactive: cytotoxicity call [1] | cytotoxicity call [2] | growth inhibition call [3]

C[C@@H]1CCCCO[C@H](CN(C)Cc2ccc(C(F)(F)F)cc2)[C@@H](C)CN([C@@H](C)CO)C(=O)c2cc(NS(C)(=O)=O)ccc2O1
inactive: cytotoxicity call [1] | cytotoxicity call [2] | growth inhibition call [3]

C[C@@H]1CCCCO[C@@H](CN(C)C(=O)CCC(F)(F)F)[C@H](C)CN([C@@H](C)CO)C(=O)c2cc(NS(=O)(=O)c3cccs3)ccc2O1
inactive: cytotoxicity call [1] | cytotoxicity call [2] | growth inhibition call [3]

CC(C)NC(=O)N(C)C[C@@H]1Oc2cc(-c3ccccc3F)ccc2S(=O)(=O)N([C@H](C)CO)C[C@H]1C
inactive: cytotoxicity call [1] | cytotoxicity call [2] | growth inhibition call [3]

Cc1noc(C)c1S(=O)(=O)Nc1ccc2c(c1)C(=O)N([C@H](C)CO)C[C@@H](C)[C@H](CN(C)C(=O)Nc1ccccc1)OCCCC[C@@H](C)O2
inactive: cytotoxicity call [1] | cytotoxicity call [2] | growth inhibition call [3]

CCCNC(=O)N1C[C@@H](O)COC[C@H]2O[C@H](CC(=O)NCCCN3CCOCC3)CC[C@@H]21
inactive: cytotoxicity call [1] | cytotoxicity call [2] | growth inhibition call [3]

Cn1cnc(S(=O)(=O)N[C@H]2C=C[C@H](CC(=O)N3CCN(c4ccccc4)CC3)O[C@H]2CO)c1
inactive: cytotoxicity call [1] | cytotoxicity call [2] | growth inhibition call [3]

C/C=C/c1ccc2c(c1)O[C@@H](CN(C)S(=O)(=O)c1ccccc1OC)[C@@H](C)CN([C@@H](C)CO)S2(=O)=O
inactive: cytotoxicity call [1] | cytotoxicity call [2] | growth inhibition call [3]

Reference: the antibiotic and cytotoxicity screens of Wong et al. (2023)
